According to PubChem BioAssay AID488969 (Vanderbilt High Throughput Screening Facility, 2010):
In all, about 110,000 compounds were measured (“z-score”: median about -0.1, highest 2% from about 2 on). Some of the results follow.

What follows are molecules tested against Metabotropic glutamate receptor 8 (Rattus norvegicus) (UniProt P70579) (assay: mGluR8 Gi/Go-coupled signaling modulation – cell-based, rat, thallium flux, HTS, primary screen (AID 488969)). Conditions: HEK293 rat mGluR8, GIRK (G protein-gated inwardly rectifying potassium channel) thallium flux, FluoZin2; at 10 µM; stronger effect = higher value; submaximal glutamate (EC20) added with thallium.
Sequence of UniProt P70579 (P70579 whole entry, looked up): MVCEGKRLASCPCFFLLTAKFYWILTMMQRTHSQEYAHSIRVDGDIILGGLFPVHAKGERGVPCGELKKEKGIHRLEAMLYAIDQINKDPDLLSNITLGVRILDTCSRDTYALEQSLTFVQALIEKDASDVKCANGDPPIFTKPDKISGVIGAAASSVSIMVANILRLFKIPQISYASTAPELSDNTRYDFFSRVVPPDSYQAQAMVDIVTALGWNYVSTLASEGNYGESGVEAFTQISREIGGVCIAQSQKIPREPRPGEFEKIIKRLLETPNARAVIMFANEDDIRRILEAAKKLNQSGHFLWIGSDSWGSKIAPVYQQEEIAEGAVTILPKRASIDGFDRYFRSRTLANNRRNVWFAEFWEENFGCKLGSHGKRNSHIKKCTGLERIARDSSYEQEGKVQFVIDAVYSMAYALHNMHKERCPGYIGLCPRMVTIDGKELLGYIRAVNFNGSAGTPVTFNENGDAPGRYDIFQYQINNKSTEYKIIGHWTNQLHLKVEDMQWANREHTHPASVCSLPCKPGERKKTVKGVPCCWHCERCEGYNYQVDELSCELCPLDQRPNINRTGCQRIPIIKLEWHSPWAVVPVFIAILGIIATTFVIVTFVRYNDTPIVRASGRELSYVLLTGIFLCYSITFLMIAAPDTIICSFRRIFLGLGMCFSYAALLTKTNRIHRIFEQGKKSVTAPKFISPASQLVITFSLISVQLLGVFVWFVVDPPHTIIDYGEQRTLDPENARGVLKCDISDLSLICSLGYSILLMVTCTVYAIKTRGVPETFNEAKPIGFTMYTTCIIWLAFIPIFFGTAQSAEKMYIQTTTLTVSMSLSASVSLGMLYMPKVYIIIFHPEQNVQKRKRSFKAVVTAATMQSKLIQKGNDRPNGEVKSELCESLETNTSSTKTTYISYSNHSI

| SMILES | z-score |
| --- | --- |
| Cc1ccc(-n2c(C)cc(C)c(C#N)c2=O)cc1Cl | -0.024 |
| O=C(CSc1nc2ccccc2[nH]1)NCc1ccc2c(c1)OCO2 | 0.0474 |
| Cc1onc(-c2c(F)cccc2Cl)c1C(=O)NCc1cccs1 | -0.0942 |
| Cc1ccc2nc(-c3ccncc3)c(Nc3ccccc3)n2c1 | -0.0153 |
| CCNC(=O)CSc1nnc(-c2ccccc2)n1-c1ccc(OCC)cc1 | -0.191 |
| CCc1ccc2c(COn3nnc4ccc(S(=O)(=O)N(C)C)cc43)cc(=O)oc2c1 | 0.082 |
| COc1ccc(C2C(C#N)=C(N)Oc3n[nH]c(C)c32)cc1Cn1nc(C)c([N+](=O)[O-])c1C (stereo unspecified) | -0.191 |
| O=C(Nc1ccc(Cl)c(-c2nc3ccccc3[nH]2)c1)c1cccnc1 | -0.295 |
| CCSc1nnc(NS(=O)(=O)c2ccc(C)cc2)s1 | -0.295 |
| CCCCOC(=O)Nc1cc(Cl)ccc1C | -0.15 |
| CC(C)OP(=O)(OC(C)C)C(NC(=O)c1cccc([N+](=O)[O-])c1)C(N)=O (stereo unspecified) | 0.00819 |
| COc1ccc(OC)c(C2CC(=O)NC(SC)=C2C#N)c1 (stereo unspecified) | 0.894 |
| O=C(N/N=C/c1ccco1)c1ccccn1 | -0.78 |
| COc1cc2[nH]c(=S)n(NC(=O)c3ccccc3)c(=O)c2cc1OC | -0.0244 |
| CCOC(=O)c1ccc2c(c1)n(CC)c(/C=C/Nc1ccccc1)[n+]2CC | 0.832 |
| Cc1ccc(NC(=O)CO/N=C/c2ccc(N(C)C)cc2)cc1 | -0.183 |
| COc1ccc(C(=O)CC(c2ccccc2)C2CCCCC2=O)cc1 (stereo unspecified) | -0.449 |
| O=C(CC12CC3CC(CC(C3)C1)C2)NC(=S)NCc1ccccc1 | -0.0656 |
| COCCCn1c(-c2ccc(OC)cc2)nc2nc3ccccc3nc21 | -0.00158 |
| COC(=O)c1sc2cc(C(F)(F)F)cnc2c1-c1ccccc1 | -0.197 |
| COc1ccc(CCNC(=O)c2cc(-c3cc(C)c(C)cc3O)n[nH]2)cc1OC | 0.06 |
| COc1ccc2c3c(cccc13)N(C)N=C2C | -0.228 |
| O=C(CSc1ccc(Cl)cc1)Nc1ccccc1Oc1ccccc1 | -0.0915 |

| SMILES | z-score |
| --- | --- |
| CCC(C)NC(=O)CS(=O)Cc1nc(-c2cccc(C)c2)oc1C (stereo unspecified) | -0.207 |
| Cc1ccc2c(c1)c(CC(=O)Nc1ccc(F)cc1)c(C(=O)O)n2C | 0.784 |
| Cc1ccc(N2CCN(C(=O)N3CCCC3)CC2)cc1Cl | 0.581 |
| C=C(C)C1CC=C(C)/C(=N/NC(=O)c2ccc(NC(=O)c3cccc(C)c3)cc2)C1 (stereo unspecified) | 0.0945 |
| c1ccc(C2CCC3(CC2)Oc2ccccc2C2CC(c4cccnc4)=NN23)cc1 (stereo unspecified) | -0.102 |
| C=C(Cl)COC(=O)[C@H]1C2C=CC(C2)C1C(=O)O (stereo partly specified) | 0.518 |
| O=C(Nc1nccs1)c1ccc(CSc2nnnn2-c2ccccc2)cc1 | 0.679 |
| COc1cccc(Oc2cnc(N)nc2-c2ccc(OC)cc2O)c1 | -0.837 |
| O=P(COCCOCP(=O)(c1ccccc1)c1ccccc1)(c1ccccc1)c1ccccc1 | 0.00375 |
| N#Cc1c(-c2ccccc2Cl)cc(-c2ccccc2)nc1Br | -0.186 |
| Cc1ccccc1-c1nc(CN2CCC(C(=O)N3CCN(c4ccccn4)CC3)CC2)c(C)o1 | -1.13 |
| CCOC(=O)CC(NS(=O)(=O)Cc1ccccc1)c1ccc(C)cc1 (stereo unspecified) | -0.0413 |
| CN(Cc1nc2ccccc2n1C)S(=O)(=O)c1ccc(Cl)cc1 | 0.959 |
| CC(CCc1ccccc1)NC(=O)CN1CCN(Cc2ccc(Cl)cc2)C1=O (stereo unspecified) | -0.793 |
| CCc1ccc(OC)c(S(=O)(=O)Nc2ccccc2C)c1 | 0.0568 |
| COc1ccc(NC(=O)N(Cc2cc3cc(OC)ccc3[nH]c2=O)CC2CCCO2)cc1 (stereo unspecified) | -0.553 |
| O=C(Nc1ccc(CN2CCCCC2)cc1)c1ccc(Br)o1 | 0.356 |
| O=C(Cn1c(-c2ccccc2)noc1=O)Nc1ccc(N2CCCCCC2)cc1 | 0.171 |
| Nn1c(SCC(=O)N2CCOCC2)nnc1-c1ccco1 | 0.245 |
| CCCC(=O)NC(=S)Nc1ccc(N2CCOCC2)c(Cl)c1 | 0.242 |
| CCC(C)NS(=O)(=O)c1ccc(NC(=O)c2c(-c3ccccc3)noc2C)cc1 (stereo unspecified) | -0.154 |
| CCN(CC)S(=O)(=O)c1cc(C(=O)NC2=NCCS2)ccc1Cl | -0.273 |
| C=CCOc1c(Br)cc(/C=N\n2nnnc2N)cc1OC | 0.0244 |

| SMILES | z-score |
| --- | --- |
| COc1ccc(C(=O)NC(=S)NC(C)(C)C)cc1Br | 0.436 |
| COc1cc2c(cc1NC(=O)c1cc(-c3ccccn3)nc3ccccc13)oc1ccccc12 | 0.43 |
| COc1cccc(C(=O)Nc2nc(-c3ccc4c(c3)OCO4)cs2)c1 | 0.336 |
| Cc1ccc(S(=O)(=O)NCCOc2nc(N3CCOCC3)nc(N3CCOCC3)n2)cc1 | -0.139 |
| C=C(C)C1Cc2nc(N)nc(C)c2C1 (stereo unspecified) | 0.304 |
| COc1ccc(CC(=O)Nc2cccc(/C(C)=N/NC(=O)c3cccc([N+](=O)[O-])c3)c2)cc1 | -0.184 |
| COc1cc(-c2nnc(COC(=O)C3c4ccccc4Oc4ccccc43)o2)cc(OC)c1OC | -1.76 |
| CC(C)(C)c1cc(CN2CCN(CCO)CC2)cc(C(C)(C)C)c1O | 0.154 |
| COCCNC(=O)C(=O)N/N=C(\C)CC(=O)Nc1ccc(Cl)cc1Cl | -0.256 |
| Cc1nc2ccc(N3C(=O)CCC3=O)cc2[nH]1 | -0.234 |
| C=CCn1c(-c2ccc(OC)cc2)nc2nc3ccccc3nc21 | -0.744 |
| CC(C)C(C(=O)NCC1CCCO1)N(Cc1ccco1)C(=O)CNS(=O)(=O)c1ccccc1 (stereo unspecified) | -0.174 |
| N#Cc1c(N)sc2c1CCN(CCc1ccccc1)C2 | 0.208 |
| N#CC1=C(S)N=C(N)C(c2nc(-c3ccccc3)cs2)C12CCCC2 (stereo unspecified) | 0.271 |
| Cc1cnc(C(=O)OCC(=O)Nc2ccc(Cl)cc2Cl)cn1 | -1.46 |
| O=C(Cn1cc2c(n1)CCCC2)NCC1CCCO1 (stereo unspecified) | 0.0655 |
| N=C1/C(=C/c2cccn2CCOc2ccccc2)C(=O)N=C2SC=C(c3ccccc3)N12 | -0.0459 |
| COc1cc2c(cc1OC)CN(C(=O)COc1ccc(C)c(C)c1)CC2 | -0.0555 |
| CS(=O)(=O)c1cnc(-c2ccccc2)nc1Oc1ccc(Cl)cc1 | 0.0557 |
| CCSc1nnc(NC(=O)CCNS(=O)(=O)c2cc(Br)cnc2N)s1 | -0.277 |
| O=C(CSc1nc(-c2ccccc2)cs1)N1CCc2ccccc21 | 0.269 |
| CCOP(=O)(OCC)C(C#N)=C1SCN(c2ccc(Cl)cc2)CS1 | -0.218 |
| Cc1cccc(Cn2cnc3ccccc32)c1 | -0.29 |

| SMILES | z-score |
| --- | --- |
| CC[n+]1c(/C=C/Nc2ccccc2)oc2ccccc21 | 1.06 |
| Cc1cccc(NC(=O)NCc2ccc3c(c2)cc(C)n3C)c1 | -0.184 |
| COc1ccccc1C(=O)N/C(=C\c1ccc(Br)cc1)C(=O)NCCO | 0.122 |
| Cc1cc(NCc2ccccc2)nc(N2CCOCC2)n1 | -0.574 |
| O=[N+]([O-])c1nn(-c2ccc3c(c2)OCCO3)n(O)c1=NC1CCCC1 | -0.842 |
| Cc1cccc(N2CCN(C(c3ccc(N(C)C)cc3)c3nnnn3C(C)(C)C)CC2)c1C (stereo unspecified) | -0.0501 |
| CCOc1ccc(/C=N/NC(=O)c2ccc(Cn3cc([N+](=O)[O-])cn3)o2)cc1 | 0.0631 |
| Cc1cccc(Cc2cnc(NC(=O)c3ccc(C)o3)s2)c1 | -0.0136 |
| Cc1cc(C)cc(C(=O)N2CC(C)OC(C)C2)c1 (stereo unspecified) | -0.13 |
| COc1ccc(CC(=O)Nc2c3c(nn2-c2cccc(C)c2C)CS(=O)C3)cc1OC (stereo unspecified) | 0.359 |
| O=C(CN1C(=O)c2ccccc2C1=O)Nc1ccccc1C(=O)NC1CCCCCC1 | -0.0277 |
| Cc1cccc(CCNC(=O)C2CCN(S(=O)(=O)c3c(C)noc3C)CC2)c1 | 1.08 |
| O=C(Nc1nc(COc2ccccc2)cs1)C1CCC1 | -0.102 |
| CCOC(=O)c1oc2c(CN3CCCCC3C)c(O)ccc2c(=O)c1-c1ccc(OC)c(OC)c1 (stereo unspecified) | -0.0625 |
| CCc1cccc(NC(=O)CN(c2ccc(OC)cc2)S(=O)(=O)c2c(C)n[nH]c2C)c1 | 0.317 |
| CC(C)c1ccccc1NC(=O)c1ccco1 | -0.185 |
| COc1ccc(C2=NOC(C(=O)NCc3ccco3)C2)cc1 (stereo unspecified) | 0.00181 |
| Cc1ccc(C(=O)N2CCN(c3cc4c(cc3[N+](=O)[O-])n(C)c(=O)n4C)CC2)cc1 | 0.0636 |
| O=C(CS(=O)(=O)Cc1ccccc1)Nc1cccnc1 | -0.163 |
| CCOC(=O)C1CCCN(C(=O)c2ccccc2NC(C)=O)C1 (stereo unspecified) | -0.331 |
| CC1CC(C)CN(C(=O)COC(=O)c2ccc[nH]c2=O)C1 (stereo unspecified) | 0.00867 |
| Cc1noc(C)c1S(=O)(=O)N(CC(=O)N1CCCCCC1)c1ccc(C(C)C)cc1 | 0.616 |
| CC(C)Nc1nc(Cl)nc(NCCOc2ccccc2)n1 | -0.163 |

| SMILES | z-score |
| --- | --- |
| COCCNCCCCOc1ccc(Br)cc1C | 0.358 |
| Cc1nc(NC(=O)CSc2nnc(-c3ccc4c(c3)OCO4)o2)c(Cl)cc1Cl | -0.316 |
| CC1(C)CC(=O)c2cn3c(nc2C1)nc1ccccc13 | -0.735 |
| CC1(C)CC(=O)C2=C(C1)OC(N)=C(C#N)C2CCc1ccccc1 (stereo unspecified) | 0.268 |
| COc1ccc(CNC(=O)C(=O)NCC(c2ccco2)N2CCOCC2)cc1 (stereo unspecified) | -0.00571 |
| O=C(CN1C(=O)COc2ccccc21)N(Cc1ccccc1)Cc1ccccn1 | -0.0299 |
| Cc1ccc(C(=O)O)cc1NC(=O)c1cccs1 | 0.0239 |
| CCC1CCCCN1CCCNC(=O)c1ccc2c(=O)n(Cc3ccc(OC)cc3)c(=O)[nH]c2c1 (stereo unspecified) | 0.751 |
| COC(=O)c1ccccc1NC(=O)c1cnn2c(C(F)F)cc(C3CC3)nc12 | 0.129 |
| Cc1cs/c(=N\N=C\c2ccccc2)n1Cc1ccco1 | -0.431 |
| C/C(=N\N1CCN(c2ccccc2)CC1)c1ccco1 | -0.205 |
| O=C(Cc1ccccc1)NCc1ccc2c(c1)OCO2 | -0.0592 |
| O=C(CSc1nnc(-c2cccnc2)n1Cc1ccccc1)NCc1ccccc1 | 0.0412 |
| CCOC(=O)N1CCN(C(=O)CN(C2CCCCC2)S(=O)(=O)c2ccc(Cl)cc2)CC1 | -0.273 |
| O=C(CN1N=C(c2ccccc2)CCC1=O)NCCCN1CCc2ccccc2C1 | -0.131 |
| O=C(c1ccc(F)cc1)N1CCN=C1c1ccccc1 | -0.225 |
| CCC(SC1=NCCS1)C(=O)Nc1nnc(-c2ccccc2OC)s1 (stereo unspecified) | 0.418 |
| CC(C)N1CC(C(=O)Nc2ccccc2)CC1=O (stereo unspecified) | -0.146 |
| O=C(NNC(=O)c1ccccc1-c1ccccc1C(=O)O)c1cccc([N+](=O)[O-])c1 | -0.138 |
